These results are taken from a collection of fitness landscapes (doi:10.1016/j.celrep.2020.107928).

In all, about 81,000 sequences were measured (“one-hybrid fitness for binding parS DNA”: median about -0.17, highest 2% from about 0.51 on). The list shows a part of the results.

B1: Caulobacter ParB omega fusion; a variant is named by its letters at X, in order, B8GW30 (parent)
chain: MESVVVGEPGMSEGRRGLGRGLSALLGEVDAAPAQAPGEQLGGSREAPIEILQRNPDQPRRTFREEDLEDLSNSIREKGVLQPILVRPSPDTAGEYQIVAGERAWRAAQRAGLKTVPIMVRELDDLAVLEIGIIENVQRADLNVLEEALSYKVLMEKFERTQENIAQTIGKSXSHVANXMRLLXLPDEVQSYLVSGELTAXHARAIAAAADPVALAKQIIEGGLSVRETEALARKAPNLSAGKSKGGRPPRVKDTDTQALESDLSSVLGLDVSIDHRGSTGTLTITYATLEQLDDLCNRLTRGI

Variants of B1 are the subject of this test. Put plainly: one-hybrid fitness for binding parS DNA (scaled: cognate 1, non-cognate 0); higher = stronger binding. The settings on record: with parS DNA site. Put shortly:
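In E. coli USO, a HIS3 reporter with its site placed 19 bp from the promoter was used to select Caulobacter ParB variants randomised at four specificity codons. Growth lasted 48 hours at 37°C on histidine-free M9 containing 0.1 mM IPTG and 5 mM 3-AT. Fitness was taken as the log change in variant-to-wild-type read ratio from Illumina sequencing of pre- and post-selection plasmids, rescaled between the non-cognate and cognate sites.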
For the variant CNHN, the “one-hybrid fitness for binding parS DNA” value is ≤ 0.2. With IDLF, the “one-hybrid fitness for binding parS DNA” value was ≤ 0.2.

Regarding QVNL, the “one-hybrid fitness for binding parS DNA” value is ≤ 0.2. For the variant GIYS, the “one-hybrid fitness for binding parS DNA” value is ≤ 0.2. Under ITSN stands ≤ 0.2; under QSWF, ≤ 0.2. The same measure for HIKI: ≤ 0.2; for ANNT: ≤ 0.2. The same measure for PQYD: ≤ 0.2. Regarding QSGS, the “one-hybrid fitness for binding parS DNA” value is ≤ 0.2. The same measure for LAIW: ≤ 0.2; for NYNV: ≤ 0.2. The same measure for QRDF: ≤ 0.2; for GSQR: ≤ 0.2.

On to CGRG, for which the “one-hybrid fitness for binding parS DNA” value was ≤ 0.2.

With HKPS, the “one-hybrid fitness for binding parS DNA” value is ≤ 0.2. Regarding RLSP, the “one-hybrid fitness for binding parS DNA” value was ≤ 0.2. The same measure for ASVV: ≤ 0.2. The same measure for WFWG: ≤ 0.2; for SNSR: ≤ 0.2; for PWWC: ≤ 0.2. Under QIHG stands ≤ 0.2; under MQSA, ≤ 0.2; under RFRQ, ≤ 0.2. In the case of KTGS, the “one-hybrid fitness for binding parS DNA” value is ≤ 0.2. Under RWWF stands ≤ 0.2; under RFIC, 0.657; under YTDE, ≤ 0.2. Regarding PDVA, the “one-hybrid fitness for binding parS DNA” value is ≤ 0.2. For the variant VRIS, the “one-hybrid fitness for binding parS DNA” value is ≤ 0.2.

RHDS: the “one-hybrid fitness for binding parS DNA” value was determined as 0.967. Consider TWER, for which the “one-hybrid fitness for binding parS DNA” value was ≤ 0.2. Under GEDT stands ≤ 0.2; under HGPE, ≤ 0.2.

As for NYYT, the “one-hybrid fitness for binding parS DNA” value was ≤ 0.2. Under SDSK stands ≤ 0.2. The same measure for VYPM: ≤ 0.2; for SAME: ≤ 0.2; for HDSE: ≤ 0.2. Under YAAP stands ≤ 0.2. On to QSQP, for which the “one-hybrid fitness for binding parS DNA” value was ≤ 0.2.

In the case of RKSE, the “one-hybrid fitness for binding parS DNA” value is ≤ 0.2. Under NSAK stands ≤ 0.2.

In the case of TAWA, the “one-hybrid fitness for binding parS DNA” value was ≤ 0.2. The same measure for WSYR: ≤ 0.2; for QMQC: ≤ 0.2; for HLRA: ≤ 0.2. The same measure for YTVY: ≤ 0.2; for CFYG: ≤ 0.2. The same measure for EYIG: ≤ 0.2; for GMES: ≤ 0.2. For AVAR, the “one-hybrid fitness for binding parS DNA” value is ≤ 0.2.

For the variant NRYK, the “one-hybrid fitness for binding parS DNA” value is ≤ 0.2. For the variant VSSS, the “one-hybrid fitness for binding parS DNA” value was ≤ 0.2. Turning to ILQF, the “one-hybrid fitness for binding parS DNA” value was ≤ 0.2. Under TGET stands ≤ 0.2. As to RQST, the “one-hybrid fitness for binding parS DNA” value turned out to be 0.916.

As to YADR, the “one-hybrid fitness for binding parS DNA” value is ≤ 0.2. Under GVGV stands ≤ 0.2. Under SYGK stands ≤ 0.2; under KDMM, ≤ 0.2. The same measure for LMTM: ≤ 0.2; for GTDD: ≤ 0.2; for CTTY: ≤ 0.2. GQWY: the “one-hybrid fitness for binding parS DNA” value is ≤ 0.2.

For WSVG, the “one-hybrid fitness for binding parS DNA” value was ≤ 0.2. Under EMMI stands ≤ 0.2; under HYES, ≤ 0.2. The same measure for ENQT: ≤ 0.2; for TISM: ≤ 0.2. Under QRRC stands ≤ 0.2; under LMDR, ≤ 0.2; under YKFS, ≤ 0.2.

Turning to PHRL, the “one-hybrid fitness for binding parS DNA” value is ≤ 0.2. The same measure for GRHC: ≤ 0.2. Turning to CWDS, the “one-hybrid fitness for binding parS DNA” value is ≤ 0.2. Under VQSA stands ≤ 0.2; under QTEH, ≤ 0.2; under ALHY, ≤ 0.2. The same measure for AIPR: ≤ 0.2; for WSAG: ≤ 0.2; for ISTH: ≤ 0.2. The same measure for FLAS: ≤ 0.2; for STRL: ≤ 0.2; for VIRS: ≤ 0.2. On to KHAA, for which the “one-hybrid fitness for binding parS DNA” value is ≤ 0.2. The same measure for QDSR: ≤ 0.2.

Take QLCK: the “one-hybrid fitness for binding parS DNA” value was ≤ 0.2. Under AAVN stands ≤ 0.2; under MNAV, ≤ 0.2. Turning to LKNG, the “one-hybrid fitness for binding parS DNA” value is ≤ 0.2.

For the variant APKY, the “one-hybrid fitness for binding parS DNA” value is ≤ 0.2.

Turning to RHWM, the “one-hybrid fitness for binding parS DNA” value is ≤ 0.2.

Regarding AFCG, the “one-hybrid fitness for binding parS DNA” value was ≤ 0.2.

Turning to RKSS, the “one-hybrid fitness for binding parS DNA” value turned out to be 0.811. With MLNC, the “one-hybrid fitness for binding parS DNA” value was ≤ 0.2. Take NAVT: the “one-hybrid fitness for binding parS DNA” value was ≤ 0.2. Under QRLC stands ≤ 0.2; under CGSI, ≤ 0.2; under PGFD, ≤ 0.2. As for ATRY, the “one-hybrid fitness for binding parS DNA” value was ≤ 0.2. Regarding TQWY, the “one-hybrid fitness for binding parS DNA” value was ≤ 0.2. Turning to QKMR, the “one-hybrid fitness for binding parS DNA” value was ≤ 0.2. Under PTAI stands ≤ 0.2. For DNPA, the “one-hybrid fitness for binding parS DNA” value was ≤ 0.2. The same measure for QNLA: ≤ 0.2. Under LERL stands ≤ 0.2. Under VSHN stands ≤ 0.2; under NNQT, ≤ 0.2. Turning to MMLT, the “one-hybrid fitness for binding parS DNA” value was ≤ 0.2. The same measure for RPVL: ≤ 0.2; for RKEI: ≤ 0.2; for LCRC: ≤ 0.2.

Consider KAEI, for which the “one-hybrid fitness for binding parS DNA” value amounted to 0.29. Take SKNT: the “one-hybrid fitness for binding parS DNA” value was ≤ 0.2.

For the variant MPPN, the “one-hybrid fitness for binding parS DNA” value is ≤ 0.2. The same measure for QPCE: ≤ 0.2. Regarding PHDC, the “one-hybrid fitness for binding parS DNA” value was ≤ 0.2.

On to MHQS, for which the “one-hybrid fitness for binding parS DNA” value is ≤ 0.2. On to DHRR, for which the “one-hybrid fitness for binding parS DNA” value is ≤ 0.2. Under AKPR stands ≤ 0.2; under RRFC, 0.679; under KIHN, ≤ 0.2.

As for ESRS, the “one-hybrid fitness for binding parS DNA” value is ≤ 0.2. Under CRRM stands ≤ 0.2; under PKIL, ≤ 0.2.

Take LALE: the “one-hybrid fitness for binding parS DNA” value was ≤ 0.2. Under VSDK stands ≤ 0.2; under AWHT, ≤ 0.2. Under AAPY stands ≤ 0.2; under QLND, ≤ 0.2; under FKSR, ≤ 0.2. LSWK: the “one-hybrid fitness for binding parS DNA” value was ≤ 0.2. As to WFPY, the “one-hybrid fitness for binding parS DNA” value is ≤ 0.2. Under MHPY stands ≤ 0.2; under HALT, ≤ 0.2. The same measure for VRKV: ≤ 0.2; for SSHA: ≤ 0.2. Under RPPG stands ≤ 0.2.

Take HSEI: the “one-hybrid fitness for binding parS DNA” value was ≤ 0.2. Under SVPA stands ≤ 0.2.

Consider IAPR, for which the “one-hybrid fitness for binding parS DNA” value is ≤ 0.2. On to LYGV, for which the “one-hybrid fitness for binding parS DNA” value is ≤ 0.2. With AGHK, the “one-hybrid fitness for binding parS DNA” value is ≤ 0.2. In the case of LKTD, the “one-hybrid fitness for binding parS DNA” value was ≤ 0.2. TDPW: the “one-hybrid fitness for binding parS DNA” value was ≤ 0.2. The same measure for HARV: ≤ 0.2. Under MSRI stands ≤ 0.2. Take VPLL: the “one-hybrid fitness for binding parS DNA” value was ≤ 0.2. The same measure for SVSY: ≤ 0.2. The same measure for WIQL: ≤ 0.2. The same measure for ERHS: ≤ 0.2; for KRVM: ≤ 0.2.
